# The other results are listed elsewhere or left out.
# Assays:
# Experiment in all cases: glycan array binding signal (z-score within array); higher = stronger binding
# Details in all cases: glycan notation: IUPAC condensed, linker removed
# [1] = target: Fuc(a1-2)[Gal(a1-3)]Gal(b1-4)[Fuc(a1-3)]GlcNAc(b1-3)GalNAc
# How it was run: (§1)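 Arrays were curated from the Consortium for Functional Glycomics database, 3228 in total, and kept only where the protein sequence was available. Binding is expressed as a within-array Z-score. This score was averaged across arrays of the same protein sequence at different concentrations or buffers and across linkers, and negative values can be read as non-binding.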
# [2] = target: Fuc(a1-2)[Gal(a1-4)]Gal(b1-4)GlcNAc
# How it was run: as §1
# [3] = target: Fuc(a1-2)[GalNAc(a1-3)]Gal
# How it was run: as §1
# [4] = target: Fuc(a1-2)[GalNAc(a1-3)]Gal(b1-3)GalNAc(a1-3)[Fuc(a1-2)]Gal(b1-4)GlcNAc
# How it was run: as §1
# [5] = target: Fuc(a1-2)[GalNAc(a1-3)]Gal(b1-3)GalNAc(b1-3)Gal(a1-4)Gal(b1-4)Glc
# How it was run: as §1
# [6] = target: Fuc(a1-2)[GalNAc(a1-3)]Gal(b1-3)GlcNAc
# How it was run: as §1
# [7] = target: Fuc(a1-2)[GalNAc(a1-3)]Gal(b1-3)GlcNAc(b1-2)Man(a1-3)[Fuc(a1-2)[GalNAc(a1-3)]Gal(b1-3)GlcNAc(b1-2)Man(a1-6)]Man(b1-4)GlcNAc(b1-4)GlcNAc
# How it was run: as §1
# [8] = target: Fuc(a1-2)[GalNAc(a1-3)]Gal(b1-3)GlcNAc(b1-2)Man(a1-3)[Fuc(a1-2)[GalNAc(a1-3)]Gal(b1-3)GlcNAc(b1-2)Man(a1-6)]Man(b1-4)GlcNAc(b1-4)[Fuc(a1-6)]GlcNAc
# How it was run: as §1
# [9] = target: Fuc(a1-2)[GalNAc(a1-3)]Gal(b1-3)GlcNAc(b1-3)GalNAc
# How it was run: as §1
# [10] = target: Fuc(a1-2)[GalNAc(a1-3)]Gal(b1-3)GlcNAc(b1-6)GalNAc
# How it was run: as §1
# [11] = target: Fuc(a1-2)[GalNAc(a1-3)]Gal(b1-4)Glc
# How it was run: as §1
# [12] = target: Fuc(a1-2)[GalNAc(a1-3)]Gal(b1-4)GlcNAc
# How it was run: as §1
# [13] = target: Fuc(a1-2)[GalNAc(a1-3)]Gal(b1-4)GlcNAc(b1-2)Man
# How it was run: as §1
# [14] = target: Fuc(a1-2)[GalNAc(a1-3)]Gal(b1-4)GlcNAc(b1-2)Man(a1-3)[Fuc(a1-2)[GalNAc(a1-3)]Gal(b1-4)GlcNAc(b1-2)Man(a1-6)]Man(b1-4)GlcNAc(b1-4)GlcNAc
# How it was run: as §1
# [15] = target: Fuc(a1-2)[GalNAc(a1-3)]Gal(b1-4)GlcNAc(b1-2)Man(a1-3)[Fuc(a1-2)[GalNAc(a1-3)]Gal(b1-4)GlcNAc(b1-2)Man(a1-6)]Man(b1-4)GlcNAc(b1-4)[Fuc(a1-6)]GlcNAc
# How it was run: as §1
# [16] = target: Fuc(a1-2)[GalNAc(a1-3)]Gal(b1-4)GlcNAc(b1-3)Gal(b1-4)GlcNAc
# How it was run: as §1
# [17] = target: Fuc(a1-2)[GalNAc(a1-3)]Gal(b1-4)GlcNAc(b1-3)Gal(b1-4)GlcNAc(b1-3)Gal(b1-4)GlcNAc
# How it was run: as §1
# [18] = target: Fuc(a1-2)[GalNAc(a1-3)]Gal(b1-4)GlcNAc(b1-3)GalNAc
# How it was run: as §1
# [19] = target: Fuc(a1-2)[GalNAc(a1-3)]Gal(b1-4)GlcNAc(b1-3)[Fuc(a1-2)[GalNAc(a1-3)]Gal(b1-4)GlcNAc(b1-6)]GalNAc
# How it was run: as §1
# [20] = target: Fuc(a1-2)[GalNAc(a1-3)]Gal(b1-4)GlcNAc(b1-6)GalNAc
# How it was run: as §1
# [21] = target: Fuc(a1-2)[GalNAc(a1-3)]Gal(b1-4)[Fuc(a1-3)]GlcNAc
# How it was run: as §1
# [22] = target: Fuc(a1-2)[GalNAc(a1-3)]Gal(b1-4)[Fuc(a1-3)]GlcNAc(b1-3)GalNAc
# How it was run: as §1
# [23] = target: Fuc(a1-2)[GalNAc(a1-4)]Gal(b1-4)GlcNAc
# How it was run: as §1
# [24] = target: Fuc(a1-2)[GalNAc(b1-3)]Gal
# How it was run: as §1
# [25] = target: Fuc(a1-3)GlcNAc
# How it was run: as §1
# [26] = target: Fuc(a1-3)[Gal(b1-4)]Glc6S
# How it was run: as §1
# [27] = target: Fuc(a1-3)[Gal(b1-4)]GlcNAc
# How it was run: as §1
# [28] = target: Fuc(a1-3)[Gal(b1-4)]GlcNAc(b1-2)Man
# How it was run: as §1
# [29] = target: Fuc(a1-3)[Gal(b1-4)]GlcNAc(b1-2)Man(a1-3)[Fuc(a1-3)[Gal(b1-4)]GlcNAc(b1-2)Man(a1-6)]Man(b1-4)GlcNAc(b1-4)GlcNAc
# How it was run: as §1
# [30] = target: Fuc(a1-3)[Gal(b1-4)]GlcNAc(b1-2)Man(a1-3)[Fuc(a1-3)[Gal(b1-4)]GlcNAc(b1-2)Man(a1-6)]Man(b1-4)GlcNAc(b1-4)[Fuc(a1-6)]GlcNAc
# How it was run: as §1
# [31] = target: Fuc(a1-3)[Gal(b1-4)]GlcNAc(b1-3)Gal(b1-3)[Fuc(a1-4)]GlcNAc
# How it was run: as §1
# [32] = target: Fuc(a1-3)[Gal(b1-4)]GlcNAc(b1-3)Gal(b1-4)[Fuc(a1-3)]GlcNAc
# How it was run: as §1
# [33] = target: Fuc(a1-3)[Gal(b1-4)]GlcNAc(b1-3)Gal(b1-4)[Fuc(a1-3)]GlcNAc(b1-3)Gal(b1-4)[Fuc(a1-3)]GlcNAc
# How it was run: as §1
# [34] = target: Fuc(a1-3)[Gal(b1-4)]GlcNAc(b1-3)GalNAc
# How it was run: as §1
# [35] = target: Fuc(a1-3)[Gal(b1-4)]GlcNAc(b1-6)GalNAc
# How it was run: as §1
# [36] = target: Fuc(a1-3)[Gal(b1-4)]GlcNAc(b1-6)[Gal(b1-3)GlcNAc(b1-3)]Gal(b1-4)Glc
# How it was run: as §1
# [37] = target: Fuc(a1-3)[Gal(b1-4)]GlcNAc6S
# How it was run: as §1
# [38] = target: Fuc(a1-3)[Gal3S(b1-4)]Glc
# How it was run: as §1
binder,measurement,setting,value
"Sebin1 (Coprinopsis cinerea), A8PEE3 (protein) MTSPFYAHIHNVQDDNTWRFTLIFANRATADEWWRAISEAPANTSIAKSITRVTPQYYTHDVNIWNIWNFFADGNIKSISERFRGRLFIVLENDRGGRGITVIPPVPIVDHVSGNWFYIRSKTAPHLFWYYDERRSSIYASKEKRTRFKISIRNPSSQTPKNAIMINTDDVTIHIKENLYVGVDNNLGHIIPTRAYRTFKFGELESGAIAGFDVVENIEERCSSTFDGASLSISGPDSSSPGEPWELV",glycan array binding signal (z-score),[1],0.859
same,glycan array binding signal (z-score),[2],-0.539
same,glycan array binding signal (z-score),[3],-0.458
same,glycan array binding signal (z-score),[4],-0.485
same,glycan array binding signal (z-score),[5],-0.203
same,glycan array binding signal (z-score),[6],-0.296
same,glycan array binding signal (z-score),[7],-0.084
same,glycan array binding signal (z-score),[8],0.753
same,glycan array binding signal (z-score),[9],-0.028
same,glycan array binding signal (z-score),[10],-0.225
same,glycan array binding signal (z-score),[11],-0.173
same,glycan array binding signal (z-score),[12],-0.218
same,glycan array binding signal (z-score),[13],0.354
same,glycan array binding signal (z-score),[14],-0.839
same,glycan array binding signal (z-score),[15],0.337
same,glycan array binding signal (z-score),[16],-0.149
same,glycan array binding signal (z-score),[17],-0.669
same,glycan array binding signal (z-score),[18],-0.216
same,glycan array binding signal (z-score),[19],1.28
same,glycan array binding signal (z-score),[20],0.553
same,glycan array binding signal (z-score),[21],0.3
same,glycan array binding signal (z-score),[22],1.34
same,glycan array binding signal (z-score),[23],-0.336
same,glycan array binding signal (z-score),[24],-0.855
same,glycan array binding signal (z-score),[25],-0.584
same,glycan array binding signal (z-score),[26],0.735
same,glycan array binding signal (z-score),[27],-0.24
same,glycan array binding signal (z-score),[28],0.034
same,glycan array binding signal (z-score),[29],-0.621
same,glycan array binding signal (z-score),[30],0.742
same,glycan array binding signal (z-score),[31],0.111
same,glycan array binding signal (z-score),[32],0.429
same,glycan array binding signal (z-score),[33],-0.039
same,glycan array binding signal (z-score),[34],-0.201
same,glycan array binding signal (z-score),[35],-0.288
same,glycan array binding signal (z-score),[36],0.369
same,glycan array binding signal (z-score),[37],-0.173
same,glycan array binding signal (z-score),[38],0.014
